# Measured values as given in the supplement of paper PMC8728848.
# The other results are listed elsewhere or left out.
# B1: NKR-PIC (Mus musculus) (protein)
# chain: GTGQKPSREKCCVFIQENLNKTTDCSVNLECPQDWLLHRDKCFHVSQVSNTWEEGQADCGRKGATLLLIQDQEELRFLLDSIKEKYNSFWIGLRFTLPDMNWKWINGTTFNSDVLKITGVTENGSCASILGDKVTPESCASDNRWICQKELNHETPSNDSGT
# Assays:
# Assay in all cases: glycan array binding signal (z-score within array); higher = stronger binding
# Details in all cases: glycan notation: IUPAC condensed, linker removed
# [1] = target: Neu5Ac(a2-6)Gal(b1-4)GlcNAc(b1-3)Gal(b1-4)GlcNAc(b1-3)Gal(b1-4)GlcNAc(b1-2)Man(a1-3)[Neu5Ac(a2-6)Gal(b1-4)GlcNAc(b1-3)Gal(b1-4)GlcNAc(b1-3)Gal(b1-4)GlcNAc(b1-2)Man(a1-6)]GalNAc
# How it was run: (§1)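 Glycan array data were curated from 3228 arrays in the Consortium for Functional Glycomics database and kept only where the protein sequence was available. Glycan names were converted to IUPAC-condensed notation, and columns mapping to the same glycan were averaged. The binding signal is a within-array Z-score, averaged across arrays of the same protein sequence at different concentrations or buffers and across linkers. Negative Z-scores can be read as non-binding.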
# [2] = target: Neu5Ac(a2-6)Gal(b1-4)GlcNAc(b1-3)Gal(b1-4)GlcNAc(b1-3)GalNAc
# How it was run: as §1
# [3] = target: Neu5Ac(a2-6)Gal(b1-4)GlcNAc(b1-3)Gal(b1-4)GlcNAc(b1-3)[Neu5Ac(a2-6)Gal(b1-4)GlcNAc(b1-3)Gal(b1-4)GlcNAc(b1-6)]GalNAc
# How it was run: as §1
# [4] = target: Neu5Ac(a2-6)Gal(b1-4)GlcNAc(b1-3)Gal(b1-4)GlcNAc(b1-6)[Gal(b1-3)]GalNAc
# How it was run: as §1
# [5] = target: Neu5Ac(a2-6)Gal(b1-4)GlcNAc(b1-3)Gal(b1-4)[Fuc(a1-3)]GlcNAc(b1-3)Gal(b1-4)[Fuc(a1-3)]GlcNAc
# How it was run: as §1
# [6] = target: Neu5Ac(a2-6)Gal(b1-4)GlcNAc(b1-3)GalNAc
# How it was run: as §1
# [7] = target: Neu5Ac(a2-6)Gal(b1-4)GlcNAc(b1-3)[Neu5Ac(a2-6)Gal(b1-4)GlcNAc(b1-6)]GalNAc
# How it was run: as §1
# [8] = target: Neu5Ac(a2-6)Gal(b1-4)GlcNAc(b1-6)GalNAc
# How it was run: as §1
# [9] = target: Neu5Ac(a2-6)Gal(b1-4)GlcNAc(b1-6)[Gal(b1-3)GlcNAc(b1-3)]Gal(b1-4)Glc
# How it was run: as §1
# [10] = target: Neu5Ac(a2-6)Gal(b1-4)GlcNAc(b1-6)[Gal(b1-3)]GalNAc
# How it was run: as §1
# [11] = target: Neu5Ac(a2-6)Gal(b1-4)GlcNAc6S
# How it was run: as §1
# Neu5Ac(a2-6)GalNAc = target: Neu5Ac(a2-6)GalNAc
# How it was run: as §1
# [12] = target: Neu5Ac(a2-6)GalNAc(b1-4)GlcNAc
# How it was run: as §1
# [13] = target: Neu5Ac(a2-6)GalNAc(b1-4)GlcNAc6S
# How it was run: as §1
# [14] = target: Neu5Ac(a2-6)GlcNAc(b1-4)GlcNAc
# How it was run: as §1
# [15] = target: Neu5Ac(a2-6)GlcNAc(b1-4)GlcNAc(b1-4)GlcNAc
# How it was run: as §1
# Neu5Ac(a2-8)Neu5Ac = target: Neu5Ac(a2-8)Neu5Ac
# How it was run: as §1
# [16] = target: Neu5Ac(a2-8)Neu5Ac(a2-3)Gal(b1-3)GalNAc(b1-4)[Neu5Ac(a2-3)]Gal(b1-4)Glc
# How it was run: as §1
# [17] = target: Neu5Ac(a2-8)Neu5Ac(a2-3)Gal(b1-3)GalNAc(b1-4)[Neu5Ac(a2-8)Neu5Ac(a2-3)]Gal(b1-4)Glc
# How it was run: as §1
# [18] = target: Neu5Ac(a2-8)Neu5Ac(a2-3)Gal(b1-4)Glc
# How it was run: as §1
# [19] = target: Neu5Ac(a2-8)Neu5Ac(a2-3)Gal(b1-4)GlcNAc
# How it was run: as §1
# [20] = target: Neu5Ac(a2-8)Neu5Ac(a2-3)[Gal(b1-3)GalNAc(b1-4)]Gal(b1-4)Glc
# How it was run: as §1
# [21] = target: Neu5Ac(a2-8)Neu5Ac(a2-3)[GalNAc(b1-4)]Gal(b1-4)Glc
# How it was run: as §1
# [22] = target: Neu5Ac(a2-8)Neu5Ac(a2-8)Neu5Ac
# How it was run: as §1
# [23] = target: Neu5Ac(a2-8)Neu5Ac(a2-8)Neu5Ac(a2-3)Gal(b1-4)Glc
# How it was run: as §1
# [24] = target: Neu5Ac(a2-8)Neu5Ac(a2-8)Neu5Ac(a2-3)[Gal(b1-3)GalNAc(b1-4)]Gal(b1-4)Glc
# How it was run: as §1
# [25] = target: Neu5Ac(a2-8)Neu5Ac(a2-8)Neu5Ac(a2-3)[GalNAc(b1-4)]Gal(b1-4)Glc
# How it was run: as §1
# [26] = target: Neu5Ac(a2-8)Neu5Ac(a2-8)Neu5Ac(a2-8)Neu5Ac(a2-3)[GalNAc(b1-4)]Gal(b1-4)Glc
# How it was run: as §1
# [27] = target: Neu5Ac(a2-8)Neu5Gc(a2-3)Gal(b1-4)GlcNAc
# How it was run: as §1
# [28] = target: Neu5Ac(b2-6)Gal(b1-4)GlcNAc
# How it was run: as §1
# Neu5Ac(b2-6)GalNAc = target: Neu5Ac(b2-6)GalNAc
# How it was run: as §1
# [29] = target: Neu5Ac9Ac(a2-3)Gal(b1-3)GlcNAc
# How it was run: as §1
# [30] = target: Neu5Ac9Ac(a2-3)Gal(b1-4)GlcNAc
# How it was run: as §1
# [31] = target: Neu5Ac9Ac(a2-6)Gal(b1-4)GlcNAc
# How it was run: as §1
# [32] = target: Neu5Gc(a2-3)Gal(b1-3)GlcNAc
# How it was run: as §1
# [33] = target: Neu5Gc(a2-3)Gal(b1-3)[Fuc(a1-4)]GlcNAc
# How it was run: as §1
# Neu5Gc(a2-3)Gal(b1-4)Glc = target: Neu5Gc(a2-3)Gal(b1-4)Glc
# How it was run: as §1
# [34] = target: Neu5Gc(a2-3)Gal(b1-4)GlcNAc
# How it was run: as §1
# [35] = target: Neu5Gc(a2-3)Gal(b1-4)GlcNAc(b1-3)Gal(b1-4)GlcNAc(b1-2)Man(a1-3)[Neu5Gc(a2-3)Gal(b1-4)GlcNAc(b1-3)Gal(b1-4)GlcNAc(b1-2)Man(a1-6)]Man(b1-4)GlcNAc(b1-4)GlcNAc
# How it was run: as §1
# [36] = target: Neu5Gc(a2-3)Gal(b1-4)[Fuc(a1-3)]GlcNAc
# How it was run: as §1
# [37] = target: Neu5Gc(a2-6)Gal(b1-4)GlcNAc
# How it was run: as §1
# Neu5Gc(a2-6)GalNAc = target: Neu5Gc(a2-6)GalNAc
# How it was run: as §1
# [38] = target: Neu5Gc(a2-8)Neu5Ac(a2-3)Gal(b1-4)GlcNAc
# How it was run: as §1
# [39] = target: Neu5Gc(a2-8)Neu5Gc(a2-3)Gal(b1-4)GlcNAc
# How it was run: as §1
# [40] = target: Neu5Gc(a2-8)Neu5Gc(a2-3)Gal(b1-4)GlcNAc(b1-3)Gal(b1-4)GlcNAc
# How it was run: as §1
# [41] = target: Neu5Gc(a2-8)Neu5Gc(a2-6)Gal(b1-4)GlcNAc
# How it was run: as §1
# [42] = target: Neu5Gc(b2-6)Gal(b1-4)GlcNAc
# How it was run: as §1
binder,measurement,setting,value
B1,glycan array binding signal (z-score),[1],-0.183
same,glycan array binding signal (z-score),[2],-0.388
same,glycan array binding signal (z-score),[3],-0.332
same,glycan array binding signal (z-score),[4],-0.33
same,glycan array binding signal (z-score),[5],-0.263
same,glycan array binding signal (z-score),[6],-0.279
same,glycan array binding signal (z-score),[7],-0.395
same,glycan array binding signal (z-score),[8],-0.403
same,glycan array binding signal (z-score),[9],-0.321
same,glycan array binding signal (z-score),[10],-0.333
same,glycan array binding signal (z-score),[11],-0.309
same,glycan array binding signal (z-score),Neu5Ac(a2-6)GalNAc,-0.257
same,glycan array binding signal (z-score),[12],4.03
same,glycan array binding signal (z-score),[13],-0.201
same,glycan array binding signal (z-score),[14],2.23
same,glycan array binding signal (z-score),[15],5.02
same,glycan array binding signal (z-score),Neu5Ac(a2-8)Neu5Ac,-0.32
same,glycan array binding signal (z-score),[16],-0.321
same,glycan array binding signal (z-score),[17],-0.352
same,glycan array binding signal (z-score),[18],-0.342
same,glycan array binding signal (z-score),[19],-0.378
same,glycan array binding signal (z-score),[20],-0.302
same,glycan array binding signal (z-score),[21],-0.318
same,glycan array binding signal (z-score),[22],-0.338
same,glycan array binding signal (z-score),[23],-0.372
same,glycan array binding signal (z-score),[24],-0.372
same,glycan array binding signal (z-score),[25],-0.335
same,glycan array binding signal (z-score),[26],-0.286
same,glycan array binding signal (z-score),[27],-0.282
same,glycan array binding signal (z-score),[28],-0.316
same,glycan array binding signal (z-score),Neu5Ac(b2-6)GalNAc,-0.161
same,glycan array binding signal (z-score),[29],-0.361
same,glycan array binding signal (z-score),[30],-0.359
same,glycan array binding signal (z-score),[31],-0.309
same,glycan array binding signal (z-score),[32],-0.264
same,glycan array binding signal (z-score),[33],-0.326
same,glycan array binding signal (z-score),Neu5Gc(a2-3)Gal(b1-4)Glc,-0.278
same,glycan array binding signal (z-score),[34],-0.264
same,glycan array binding signal (z-score),[35],-0.302
same,glycan array binding signal (z-score),[36],-0.403
same,glycan array binding signal (z-score),[37],-0.34
same,glycan array binding signal (z-score),Neu5Gc(a2-6)GalNAc,-0.216
same,glycan array binding signal (z-score),[38],-0.409
same,glycan array binding signal (z-score),[39],-0.369
same,glycan array binding signal (z-score),[40],-0.408
same,glycan array binding signal (z-score),[41],-0.304
same,glycan array binding signal (z-score),[42],-0.177
